# From publication PMC4336329 (PLoS ONE, 2015)
# Hit rate of the full screen: of about 310,000 compounds, about 14,000 (4.5%) showed an effect of 50% or more. Effects have a minus sign here. The list shows a part of the results.
# Molecular target: human ether-à-go-go-related gene (hERG) potassium channel (human, UniProt Q12809)
# Experiment: primary screen, population patch clamp on CHO cells stably expressing hERG
# 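Further: peak tail current of the secondary pulse compared with the same well before compound.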
# Sequence of human ether-à-go-go-related gene (hERG) potassium channel (Q12809 whole entry, looked up): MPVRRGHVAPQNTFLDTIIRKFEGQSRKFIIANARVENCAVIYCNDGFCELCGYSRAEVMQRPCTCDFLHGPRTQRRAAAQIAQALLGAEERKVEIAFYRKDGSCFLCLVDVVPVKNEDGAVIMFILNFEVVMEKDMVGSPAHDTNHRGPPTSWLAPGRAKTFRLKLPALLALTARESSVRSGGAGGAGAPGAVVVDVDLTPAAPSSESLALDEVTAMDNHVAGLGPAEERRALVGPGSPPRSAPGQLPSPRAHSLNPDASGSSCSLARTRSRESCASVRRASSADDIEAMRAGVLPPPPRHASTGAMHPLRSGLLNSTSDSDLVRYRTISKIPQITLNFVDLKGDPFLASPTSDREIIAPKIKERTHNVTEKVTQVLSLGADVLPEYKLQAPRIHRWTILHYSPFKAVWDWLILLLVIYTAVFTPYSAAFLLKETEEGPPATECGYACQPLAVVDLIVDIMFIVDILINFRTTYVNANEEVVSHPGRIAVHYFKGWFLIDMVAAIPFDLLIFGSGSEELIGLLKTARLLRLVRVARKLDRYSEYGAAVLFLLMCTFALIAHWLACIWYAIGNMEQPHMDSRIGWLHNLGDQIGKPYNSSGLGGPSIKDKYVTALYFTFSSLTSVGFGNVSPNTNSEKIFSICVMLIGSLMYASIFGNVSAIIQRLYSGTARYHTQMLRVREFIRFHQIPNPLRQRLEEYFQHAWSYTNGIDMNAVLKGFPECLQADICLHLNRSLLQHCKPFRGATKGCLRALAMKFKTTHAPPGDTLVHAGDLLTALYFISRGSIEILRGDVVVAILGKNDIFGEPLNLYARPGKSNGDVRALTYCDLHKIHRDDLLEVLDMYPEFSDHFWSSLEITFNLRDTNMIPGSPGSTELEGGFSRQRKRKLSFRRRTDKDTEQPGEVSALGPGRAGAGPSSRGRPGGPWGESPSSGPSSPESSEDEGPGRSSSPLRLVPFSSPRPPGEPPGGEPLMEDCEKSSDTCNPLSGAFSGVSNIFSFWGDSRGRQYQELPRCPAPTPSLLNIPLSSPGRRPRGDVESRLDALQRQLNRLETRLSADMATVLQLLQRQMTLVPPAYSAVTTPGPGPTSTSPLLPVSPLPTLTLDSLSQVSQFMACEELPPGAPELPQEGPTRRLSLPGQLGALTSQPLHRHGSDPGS
row,Compound,"hERG current change (%, negative = inhibition) at 10uM"
1,CCCS(=O)(=O)c1c(S(=O)(=O)CCC)c2c3ccccc3ccn2c1C(=O)OC,9.96%
2,O=C(Nc1nccs1)c1cccc2ccccc12,-1.6%
3,Cc1c(C(=O)Nc2ccc(C(F)(F)F)cc2)sc2ncn(CC(=O)N3CCN(c4ccccn4)CC3)c(=O)c12,16.4%
4,COc1ccc(C(=O)Nc2ccc(-c3cn4ccsc4n3)cc2)cc1S(=O)(=O)N1CCOCC1,-9.6%
5,Cc1cccc(C(=O)Nc2cc(OCc3cccc(F)c3)c(Cl)cc2Cl)c1,-7.87%
6,CSc1ccccc1C(=O)C1CCCN(Cc2ccccn2)C1 (stereo not shown),-12.6%
7,COc1cccc(-n2c(SCC#N)nnc2-c2cnccn2)c1,-9.76%
8,C=CCc1ccccc1OCC(O)CNC (stereo not shown),12%
9,CC1=CC(=O)C2=C(C)CC(O)C3C(C)C(=O)OC3C12.O (stereo not shown),-7.36%
10,O=C(CN1CCOCC1)Nc1cccc(S(=O)(=O)N2CCCCCC2)c1,-35.3%
11,N#CCCn1c(-c2nonc2NC(=O)c2ccccc2Cl)nc2ccccc21,-5.62%
12,CN(C)c1ccc(S(=O)(=O)NCC(=O)OCC(=O)NC(=O)C2CCCCC2)cc1[N+](=O)[O-],3.79%
13,CC1CCN(C(=O)Cn2c3ccccc3c3nc4n(c(=O)c32)CCCS4)CC1,7.55%
14,CCOc1ccc(S(=O)(=O)N(C)CCO)cc1-c1nc2c(C(C)(C)C)nn(C)c2c(=O)[nH]1,-25.6%
15,CC(C)Cn1c(-c2ccco2)n[nH]c1=S,12.9%
16,CCOC(=O)c1cc(CC)sc1N1C(=O)CC(Sc2ncccc2C(=O)O)C1=O (stereo not shown),23.2%
17,O=C(c1ccc2c(c1)OCO2)C1CCCN(C(=O)C2CCOCC2)C1 (stereo not shown),7.74%
18,CCCc1cc(=O)[nH]c(SCC(=O)N2CCN(c3ccccc3)CC2)n1,-12.6%
19,COc1ccccc1N(CC(=O)NC1CCCC1)C(=O)CCC(=O)Nc1ccccn1,6.68%
20,CCOC(=O)c1sc(C)nc1C1CCN(C(=O)OCC)CC1,6.32%
21,COc1ccc(CN2C(=O)NC(=O)/C(=C/c3ccoc3)C2=O)cc1,-32.7%
22,CCOc1c(C)cnc2c1c(=O)n(Cc1cccc(Cl)c1)c(=O)n2C,-36.1%

row,Compound,"hERG current change (%, negative = inhibition) at 10uM"
1,CCCNC(=O)NC(=O)CSc1nc2cc(C(=O)OC)ccc2c(=O)n1-c1ccccc1,-1.66%
2,CC(C)[C@H]1CN=C2N(C[C@H](C)NC(=O)CCC3CCCCC3)[C@H](Cc3ccc(O)cc3)CN21,-59.7%
3,CCN(CC1COc2ccccc2O1)C(=S)NC1CC2CCC1C2 (stereo not shown),1.34%
4,O=C(CSc1nc2ccccc2[nH]1)N1CCN(S(=O)(=O)c2ccc(Cl)cc2)CC1,-19.8%
5,COc1cccc(/C=N/c2sc(Cc3ccccc3)c(C)c2C(N)=O)c1O,-4.7%
6,CCC(=NC1CC1)c1c(O)n(C2CCCCC2)c(=O)[nH]c1=O,-18.5%
7,Cc1cc2oc(=O)cc(CN3CCC(C)CC3)c2cc1C,-11.7%
8,Cc1ccc(NC(=O)C2CCN(S(=O)(=O)c3ccc4c(c3)NC(=O)C(C)S4)CC2)c(C)c1 (stereo not shown),-3.06%
9,CCN(CC)S(=O)(=O)c1ccc(Oc2ccccc2)cc1,-20.7%
10,Cc1cccc(NC(=O)c2ccc(OCC3CCCO3)cc2)c1C (stereo not shown),-2.52%
11,CC(C)NS(=O)(=O)c1ccc2c(c1)oc(=O)n2C,18%
12,COCCNC(=O)CN(Cc1ccc(OC)cc1)C(=O)CCC(=O)Nc1nccs1,2.7%
13,Cc1ccc(NS(=O)(=O)c2cccc(C(=O)N3CCCC(C)C3)c2)cc1 (stereo not shown),-28.6%
14,Cc1cc2nc(-c3ccccc3)cc(=O)n2[nH]1,-2.2%
15,NC(=O)c1ccc(NS(=O)(=O)c2ccc3ccccc3c2)cc1,6.83%
16,CCCCC(=O)Nc1ccccc1N1CCOCC1,6.55%
17,O=C(O)c1cnn2c(-c3ccccc3)ccnc12,2.34%
18,CSc1nsc(SCCN2C(=O)c3ccccc3C2=O)n1,-10.5%
19,CCOC(=O)c1nnn2c1nc(SCC(C)=O)c1ccccc12,2.57%
20,COc1ccc(-c2n[nH]c(C)c2-c2cnn(-c3ccccc3)c2)c(O)c1C,-5.82%
21,CCOc1ccc(NS(=O)(=O)c2cc(OCC(N)=O)c(C)cc2Cl)cc1,0.133%
22,COc1cc(OC)cc(C(=O)Nc2ccc(S(=O)(=O)Nc3ncccn3)cc2)c1,12.8%

row,Compound,"hERG current change (%, negative = inhibition) at 10uM"
1,S=C(NCCCc1ccccc1)Nc1ccccc1,12.1%
2,CC(=O)NCc1nnc2c3ccccc3c(-c3ccccc3)nn12,-31.9%
3,COc1cc(/C=C/C(=O)OCC(=O)Nc2cc(S(=O)(=O)N(C)C)ccc2Cl)ccc1O,-7.89%
4,CCOC(=O)c1c(NC(=O)CN2C(=O)NC3(CCCCC3C)C2=O)sc(C)c1CC (stereo not shown),1.68%
5,Cc1ccc(C(=O)NNC(=O)C2CCN(c3nccc(C)n3)CC2)cc1,10.1%
6,CC(=O)c1ccc(OCC(=O)NC2CCS(=O)(=O)C2)cc1 (stereo not shown),13.3%
7,C/C(=N\NC(=O)c1c(Cl)c(C)nn1C)c1cccc(NC(=O)C2CCCC2)c1,-0.542%
8,COc1ccc(-c2cccc(NC(=O)c3cccs3)c2)nn1,1.7%
9,COC(=O)c1cc(NC(=O)C2CC2)cc(C(=O)OC)c1,2.74%
10,Clc1ccc(C2=NN=C3COc4ccccc4N3C2)cc1,-25.3%
11,O=C(OC1CCOC1=O)c1cccc(S(=O)(=O)Nc2cccc(Cl)c2)c1 (stereo not shown),-1.86%
12,N#CC1=CN(Cc2ccccc2)C=C(/C=N/Nc2ccccc2)C1,-5.72%
13,CSc1ncccc1C(=O)NCC(c1cccs1)N1CCOCC1 (stereo not shown),-5.1%
14,O=C(Cn1c(O)c(/C=C2\C=Nc3ccccc32)sc1=O)Nc1ccc2c(c1)OCO2,5.87%
15,CC1(C)NC(=O)N(CC(O)CN(c2ccccc2)S(=O)(=O)c2ccccc2)C1=O (stereo not shown),-16.1%
16,O=C(NCC1CCCO1)c1ccc(NC(=O)C2C3C=CC(C3)C2C(=O)O)cc1 (stereo not shown),-1.71%
17,Cc1ccc(-c2cc(C(=O)O)c3sc(N4CCCCC4)nc3n2)cc1,26.6%
18,O=C(NC1CCCc2ccccc21)c1ccccc1Br (stereo not shown),-39.9%
19,CC(C(=O)Nc1ccc(S(=O)(=O)Nc2ncccn2)cc1)N1C(=O)c2ccccc2S1(=O)=O (stereo not shown),-0.997%
20,CC1=C(C(=O)OCc2ccccc2)C(c2ccccc2OS(=O)(=O)c2ccc(C)cc2)NC(=O)N1CCCC(=O)O (stereo not shown),-47.2%
21,C=CCNC(=O)c1onc(CSc2ccncc2)c1C(=O)NCC=C,-7.89%
22,COc1cc2cc(C(c3nnnn3Cc3ccc(F)cc3)N3CCCCCC3)c(=O)[nH]c2cc1OC (stereo not shown),-74%

row,Compound,"hERG current change (%, negative = inhibition) at 10uM"
1,Nc1ccc(C(=O)OCC(=O)NC2CCS(=O)(=O)C2)cc1[N+](=O)[O-] (stereo not shown),-3.78%
2,O=C1CC(N2CCc3ccccc32)C(=O)N1c1ccc(F)cc1 (stereo not shown),-5%
3,O=C(CN1C(=O)c2cccc3cccc(c23)C1=O)N1CCN(c2ccccn2)CC1,6.25%
4,COc1ccc(Cl)cc1NC(=O)CN(C)C(=O)c1ccc2n[nH]nc2c1,-13.8%
5,COc1ccc(C(=O)NCCSCc2cccc(Cl)c2)cc1OC,-6.13%
6,CCN(CC)c1ccc(NC(=O)CSc2nnc(N)s2)cc1C,2.78%
7,CC(C)(C)OC(=O)NCCC(=O)Oc1ccc2ccc(=O)oc2c1,-4.42%
8,O=C1CCC(/C=C/c2ccccc2)=NN1,11.1%
9,CCc1c(C)nc(N)nc1N1N=C1SC(C(C)=O)C(C)=O,27.8%
10,O=C(CSc1nnc(-c2ccccc2)o1)N1CCc2ccccc2C1,-2.21%
11,CCN(C(=O)CSc1n[nH]c(-c2cccs2)n1)C1CCS(=O)(=O)C1 (stereo not shown),12.2%
12,CCOC(=O)c1sc(NC(=O)CSc2nc3cccnc3n2C)nc1C,4.01%
13,CCOc1ccc(/C=C2/C(=O)NC(=O)N(CCc3ccc(F)cc3)C2=O)cc1,8.76%
14,CCCCC1=CC2=CC(=O)C(C)(OC(=O)c3cccs3)C(=O)C2=CO1 (stereo not shown),6.94%
15,COc1c(Cl)ccc(Cl)c1C(=O)OCC(=O)O,5.86%
16,CCC(O)C(C)(C)C (stereo not shown),5.99%
17,O=C(Nc1ccccc1C(F)(F)F)c1ccc(CN2CCC(Cc3ccccc3)CC2)cc1,-42.4%
18,CC(=O)Nc1cc2c(cc1NC(=O)Cn1nnc(-c3ccc(C)o3)n1)OCCO2,8.56%
19,COc1cc(S(=O)(=O)N(Cc2cccnc2)Cc2ccco2)ccc1-n1cnnn1,-52.3%
20,Cc1ccc(N2CC(C(=O)NCc3cccs3)CC2=O)cc1C (stereo not shown),-7.52%
21,COc1cc(-c2nnc(SCC(=O)OC3CCCCC3)o2)cc(OC)c1OC,5.1%
22,CCCCCNc1nc(N2CCCC2)c2c(c1C#N)CCN(C)C2,-72.8%
